The whole screen tested about 1,900 compounds, of which about 40 (2%) showed an effect of 50% or more. The list shows a part of the results. Residues, ends and D or L forms follow the SMILES beside them.
target: human SGLT1 (hSGLT1) (human, UniProt P13866); test: primary screen, percent of control activity; higher = less effect of the substance; parameters: single well; conditions: 50 µM
Description: Two days before the assay, CHO‐wild type and CHO‐hSGLT1 cells were seeded in maintenance medium at 25 000 cells/well in clear‐bottom black 96‐well cell culture plates. Before the assay, cells were washed 3 times with 150 μL/well D‐glucose free DMEM with 0.3% (w/v) BSA. Library compounds at 50 μmol/L (singlicate) prepared in D‐glucose free DMEM with 160 μmol/L 1‐NBD‐glucose and 0.3% (w/v) BSA and negative controls (triplicate) were added at 100 μL/well and placed in a humidified incubator at 37°C with 5% CO2 for 90 minutes. Next, cells were washed 3 times with DMEM with 0.3% (w/v) BSA (150 μL/well). Care was taken to remove all medium after the last wash. Finally, 1‐NBD‐glucose was extracted from the cells by adding 10 μL/well isopropanol and orbital shaking for 5 minutes at 600 rpm, followed by incubation in the dark for 30 minutes. Fluorescence was measured on a Tecan Infinite M200 Microplate Reader (Tecan, Männedorf, Switzerland) with excitation at 445 nm and emission at 525 nm. The amount of 1‐NBD‐glucose taken up by the CHO‐wild type or CHO‐hSGLT1 cells in the presence or absence of test compounds was interpolated from 1‐NBD‐glucose calibration standards. The background uptake by CHO‐wild type was subtracted from the uptake by CHO‐hSGLT1. Background corrected uptake with test compound was expressed as a percentage of corrected uptake without test compound.

Chain of human SGLT1 (hSGLT1) (P13866 whole entry, looked up): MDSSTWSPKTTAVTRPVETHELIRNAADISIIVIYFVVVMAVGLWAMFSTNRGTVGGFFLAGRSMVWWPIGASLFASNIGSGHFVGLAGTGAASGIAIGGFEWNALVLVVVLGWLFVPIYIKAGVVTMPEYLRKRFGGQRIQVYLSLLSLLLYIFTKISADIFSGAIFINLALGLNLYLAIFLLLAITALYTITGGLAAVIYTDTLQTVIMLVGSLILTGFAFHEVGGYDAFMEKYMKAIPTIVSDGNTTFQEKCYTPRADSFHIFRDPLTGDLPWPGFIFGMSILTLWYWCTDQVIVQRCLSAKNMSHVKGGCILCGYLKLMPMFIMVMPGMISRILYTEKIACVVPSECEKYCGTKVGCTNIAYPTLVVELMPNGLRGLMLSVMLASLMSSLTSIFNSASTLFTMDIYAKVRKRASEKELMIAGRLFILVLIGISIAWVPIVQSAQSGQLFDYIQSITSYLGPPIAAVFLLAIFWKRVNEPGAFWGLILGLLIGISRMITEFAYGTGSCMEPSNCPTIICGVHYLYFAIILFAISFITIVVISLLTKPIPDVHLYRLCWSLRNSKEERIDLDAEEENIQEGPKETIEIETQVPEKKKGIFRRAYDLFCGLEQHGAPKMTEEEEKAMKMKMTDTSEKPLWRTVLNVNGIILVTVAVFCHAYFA

Row | Structure (SMILES) | NORMALIZED SGLT1 ACTIVITY (%)
1 | C=C1CC2OC2(C)CC[C@@H]2[C@@H]1CC2(C)C (some centres unmarked) | 84
2 | CC(=O)Nc1ccc(O)cc1 | 103
3 | C/C=C(/C(=C/C)c1ccc(O)cc1)c1ccc(O)cc1 | 97
4 | CCOc1ccc(C(=O)c2ccc(OC)c(O)c2O)cc1 | 233
5 | CCC(CCC(C)[C@H]1CCC2C3CC=C4C[C@@H](O)CC[C@]4(C)C3CC[C@@]21C)C(C)C (some centres unmarked) | 106
6 | COC(=O)C[C@H]1C(C)(C)C(OC(C)=O)[C@]2(O)C=C3C4CC(=O)O[C@@H](c5ccoc5)[C@]4(C)CCC3[C@@]1(C)C2=O (some centres unmarked) | 98
7 | CC(=O)O[C@H]1CC[C@@]2(C)C(=CC(=O)C3C4CCC(C(C)CCCC(C)C)[C@@]4(C)CCC32)C1 (some centres unmarked) | 121
8 | C=CCSCC1Nc2cc(Cl)c(S(N)(=O)=O)cc2S(=O)(=O)N1 (centres unmarked) | 103
9 | COc1cc2c(cc1OC)-c1cc3ccc(OC)c(OC)c3c[n+]1CC2.[Cl-] | 104
10 | COc1ccc(C2CC(=O)c3ccc(OC)cc3O2)cc1 (centres unmarked) | 122
11 | COc1cc2ccc(=O)oc2c(O)c1O | 142
12 | COc1ccc(C(=O)c2ccc(O)cc2)c(O)c1O | 377
13 | Nc1nc(O)c2nc(C(=O)O)cnc2n1 | 97
14 | CC1(C)C(=O)C=C[C@@]2(C)C1C=C[C@]1(C)C2CC[C@@]2(C)[C@H](c3ccoc3)OC(=O)[C@H]3O[C@]321 (some centres unmarked) | 64
15 | COC(=O)c1c(C)c2c(c(C)c1O)OC(=O)c1c(C)c(Cl)c(O)c(Cl)c1O2 | 877
16 | CC(=O)NC1CCSC1=O (centres unmarked) | 91
17 | C[C@]12CC[C@@H]3c4ccc(O)cc4CC[C@H]3[C@@H]1C[C@@H](O)[C@@H]2O | 147
18 | C=C(C)[C@H]1CC=C(C(=O)O)CC1 | 171
19 | CCN(CCCc1ccccc1)CCCc1ccccc1.O=C(O)CC(O)(CC(=O)O)C(=O)O | 207
20 | Cc1cccc2c3c(ccc12)C1=C(C(=O)C3=O)[C@@H](C)CO1 | 90
21 | CC(=O)O[C@@H]1CC[C@@]2(C)C(C[C@@H](OC(C)=O)[C@@]3(C)C4=CC(=O)O[C@@H](c5ccoc5)[C@]4(C)CCC23)C1(C)C (some centres unmarked) | 192
22 | Cc1noc(NS(=O)(=O)c2ccc(N)cc2)c1C | 122

Row | Structure (SMILES) | NORMALIZED SGLT1 ACTIVITY (%)
23 | CNC(=O)Oc1ccccc1OC(C)C | 99
24 | COc1ccc(-c2coc3c(O)c(OC)ccc3c2=O)cc1 | 175
25 | Cn1nnnc1SCC1=C(C(=O)O)N2C(=O)[C@@H](NC(=O)[C@H](OC=O)c3ccccc3)[C@H]2SC1 | 94
26 | CC1(C)CC[C@@]2(C(=O)O)C(C1)C1=CCC3[C@@]4(C)CC[C@H](O)C(C)(C)C4CC[C@@]3(C)[C@]1(C)C[C@@H]2O (some centres unmarked) | -6
27 | OCC(O)C(O)C(O)C(O)C(O)CO (centres unmarked) | 99
28 | COc1cc(O)c(C)c(O)c1 | 113
29 | O=c1c(O)cccc2cc(O)c(O)c(O)c12 | 137
30 | CCOP(=S)(OCC)SCn1c(=O)oc2cc(Cl)ccc21 | 57
31 | COC(=O)CCC(C)[C@H]1CCC2C3C(C[C@H](O)[C@@]21C)[C@@]1(C)CC[C@@H](O)C[C@H]1C[C@H]3O (some centres unmarked) | 100
32 | Cc1onc(-c2ccccc2Cl)c1C(=O)N[C@@H]1C(=O)N2[C@@H]1SC(C)(C)[C@@H]2C(=O)[O-].[Na+] | 89
33 | CC(C)[N+](C)(CCC(C(N)=O)(c1ccccc1)c1ccccc1)C(C)C.[I-] | 112
34 | C[C@H](CCC(=O)[O-])[C@H]1CCC2C3C(=O)CC4CC(=O)CC[C@]4(C)C3CC(=O)[C@@]21C.[Na+] (some centres unmarked) | 90
35 | NCCCC[C@H](N)C(=O)N[C@@H](Cc1ccccc1)C(=O)N[C@@H](Cc1ccc(O)cc1)C(=O)O (H-Lys-Phe-Tyr-OH) | 110
36 | COc1ccc([C@@H](C)C(=O)c2ccc(O)cc2O)cc1 | 120
37 | C[C@@H]1CC[C@@]2(NC1)O[C@H]1C[C@H]3C4CC=C5C[C@@H](O)CC[C@]5(C)C4CC[C@]3(C)C1[C@@H]2C (some centres unmarked) | 109
38 | OC[C@H]1O[C@@H](O[C@@H]2[C@@H](CO)OC(O)(CO)[C@H]2O)[C@H](O)[C@@H](O)[C@H]1O (mixture of isomers) | 97
39 | CNC(=O)Oc1ccc2c(c1)[C@]1(C)CCN(C)[C@@H]1N2C.O=S(=O)(O)O | 87
40 | CC(C)NCC(O)COc1ccc(CC(N)=O)cc1 (centres unmarked) | 128
41 | COc1ccc(-c2coc3cc(O)ccc3c2=O)c(OC)c1 | 135
42 | O=C1c2ccccc2C(=O)C1c1ccccc1 | 111
43 | CC1(C)C2CC(=O)[C@]3(C)C(CC[C@@]4(C)[C@H](c5ccoc5)OC(=O)C5OC543)[C@@]2(C)[C@@H](O)C[C@H]1O (some centres unmarked) | 181
44 | CC(C)=CCC[C@](C)(O)C1CC=C(C)CC1 (some centres unmarked) | 99
